Results published in PMC4336329 (PLoS ONE, 2015).
Out of some 310,000 compounds screened, about 2,200 (0.71%) showed an effect of 50% or more. Effects have a minus sign here. The list shows a part of the results.

biological target: human ether-à-go-go-related gene (hERG) potassium channel (human, UniProt Q12809); assay: primary screen, population patch clamp on CHO cells stably expressing hERG
Sequence (Q12809 whole entry, looked up): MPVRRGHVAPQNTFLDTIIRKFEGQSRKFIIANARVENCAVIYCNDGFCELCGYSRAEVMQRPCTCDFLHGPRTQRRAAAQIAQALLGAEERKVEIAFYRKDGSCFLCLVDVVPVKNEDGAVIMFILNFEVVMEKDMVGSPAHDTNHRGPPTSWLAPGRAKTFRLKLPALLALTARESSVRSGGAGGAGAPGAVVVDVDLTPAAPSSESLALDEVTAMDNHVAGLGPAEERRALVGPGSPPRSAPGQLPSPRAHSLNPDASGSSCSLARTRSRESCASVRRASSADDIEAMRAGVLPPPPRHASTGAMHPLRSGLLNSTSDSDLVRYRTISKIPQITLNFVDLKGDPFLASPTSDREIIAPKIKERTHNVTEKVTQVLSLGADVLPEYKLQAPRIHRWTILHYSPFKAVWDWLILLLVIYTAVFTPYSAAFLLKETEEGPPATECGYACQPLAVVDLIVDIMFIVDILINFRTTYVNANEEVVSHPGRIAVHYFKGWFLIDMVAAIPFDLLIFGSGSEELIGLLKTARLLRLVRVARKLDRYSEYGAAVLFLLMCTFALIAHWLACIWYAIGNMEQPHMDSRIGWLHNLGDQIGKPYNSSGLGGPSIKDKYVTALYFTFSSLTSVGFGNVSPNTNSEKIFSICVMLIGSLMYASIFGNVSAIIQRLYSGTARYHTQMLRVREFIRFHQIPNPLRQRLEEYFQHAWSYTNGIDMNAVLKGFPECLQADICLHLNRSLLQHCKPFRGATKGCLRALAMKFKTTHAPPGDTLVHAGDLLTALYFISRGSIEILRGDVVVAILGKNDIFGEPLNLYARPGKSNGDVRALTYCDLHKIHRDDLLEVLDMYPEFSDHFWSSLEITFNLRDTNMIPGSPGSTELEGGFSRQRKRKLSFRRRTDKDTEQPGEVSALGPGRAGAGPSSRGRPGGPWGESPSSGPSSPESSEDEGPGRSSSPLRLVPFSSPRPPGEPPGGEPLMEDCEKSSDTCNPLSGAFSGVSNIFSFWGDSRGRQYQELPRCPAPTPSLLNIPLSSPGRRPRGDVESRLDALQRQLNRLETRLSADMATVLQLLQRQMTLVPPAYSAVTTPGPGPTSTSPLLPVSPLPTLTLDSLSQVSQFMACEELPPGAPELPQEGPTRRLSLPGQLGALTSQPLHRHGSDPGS

| Compound | hERG current change (%, negative = inhibition) at 1uM |
| --- | --- |
| CC(Sc1nnc(-c2cccs2)n1Cc1ccccc1)C(=O)NCc1ccc2c(c1)OCO2 (centres unmarked) | 0.773% |
| C=C(C)c1cccc(C(C)(C)NC(=O)Nc2ccc(C(N)=O)cc2)c1 | 7.17% |
| COC(=O)C1=NN(c2ccccc2)C2(S1)SC(C(C)=O)=C(C)N2c1ccccc1 (centres unmarked) | -13.5% |
| C[C@@H]1O[C@@H]1P(=O)([O-])[O-].[Na+] | 12.8% |
| O=[N+]([O-])c1cc(-c2cnc3ccccc3n2)ccc1Oc1ccc(Br)cc1 | -12.1% |
| CCOC(=O)N1CCC(Nc2c(NCCCN3CCN(CC)CC3)c(=O)c2=O)CC1 | 8.96% |
| COc1ccc(OC)c(NC(=O)N2CCCC(C)C2)c1 (centres unmarked) | 4.69% |
| CC(C)c1ccc(CN2C(=O)NC3(CCCCCC3)C2=O)cc1 | 8.36% |
| CN(C)CCCNC(=O)c1cc(C(=O)c2c(Cl)cccc2Cl)c[nH]1 | 1.8% |
| CCOc1ccc(C(=O)/C=C/Nc2ccc(S(=O)(=O)Nc3cc(C)nc(C)n3)cc2)cc1 | 8.37% |
| CC(C)(C)NC(=O)NC(=O)CN1CCCCCCC1 | 10.7% |
| COc1c(F)c(F)c(C(=O)Nc2ccccc2N2CCN(C(C)=O)CC2)c(F)c1F | 1.21% |
| Cc1ccc(S(=O)(=O)Nc2ccc3c(c2)n(C)c(=O)n3C)cc1 | -4.59% |
| CCOc1cc(S(=O)(=O)NCC2CCCO2)ccc1F (centres unmarked) | 14.7% |
| C=CCS/C(N)=N\N=C\c1cc(Br)cc([N+](=O)[O-])c1O | 11% |
| CC1(C)CC[C@]2(C(=O)O)CC[C@]3(C)C(=CCC4[C@@]5(C)CC[C@H](O)C(C)(C)C5CC[C@]43C)C2C1 (some centres unmarked) | 16.8% |
| C=CCN(C(=O)c1ccc2c(c1)nnn2C)c1ccccc1 | 8.05% |
| COc1ccc(CCNC(=O)c2cnc3n(c2=O)CCS3)cc1OC | 4.64% |
| COc1cccc(C2=NCCc3cc4c(cc32)OCO4)c1OC | 10.5% |

| Compound | hERG current change (%, negative = inhibition) at 1uM |
| --- | --- |
| CCCCCCSc1nc(O)c(C2OC(=O)c3c2ccc(OC)c3OC)c(=O)n1CC (centres unmarked) | 13.4% |
| CCc1c(O)nc(N2CCN(Cc3ccccc3)CC2)[nH]c1=O | 5% |
| Cc1ccc(S(=O)(=O)N(CCO)c2cc3c(s2)CCCC3)cc1 | 6% |
| CCCC(=O)Nc1cc(-c2nn(C)c(=O)c3ccccc23)ccc1N1CCCCC1 | -15.2% |
| O=C(CSCc1ccc(Cl)cc1)Nc1nccs1 | 7% |
| Cc1ccccc1CSCC(=O)NCCSc1ccccn1 | 9.46% |
| Cc1ccc(CNC(=O)C2CC(=O)N(c3ccc(OCC(=O)N4CCCC4)cc3)C2)cc1 (centres unmarked) | 19% |
| C=CCN1CCN(C(c2ccccc2OC)c2nnnn2C(C)(C)C)CC1.Cl (centres unmarked) | 8.65% |
| CCN(CC)S(=O)(=O)c1ccc2c(c1)nc(SCC(=O)N1CCOCC1)n2-c1ccccc1OC | 3.53% |
| Cc1ccc(S(=O)(=O)N2CCN(c3ccc(N4CCOCC4)nn3)CC2)cc1[N+](=O)[O-] | 4.85% |
| CN(C)c1ccc(/C=N/Nc2nncc3ccccc23)cc1 | 13.9% |
| O=C(Nc1ccc(Cl)cn1)c1cccc2c(Br)cccc12 | 4.32% |
| CC(C)=C1C2CCC1C1C(=O)N(c3nc(-c4ccc(F)cc4)c(C)s3)C(=O)C21 (centres unmarked) | 8.65% |
| CC(C)N1CC(COc2ccccc2Cl)OC1=O (centres unmarked) | 9.29% |
| Cc1ccc2nc(-c3ccc(NC(=O)CSCC(=O)O)cc3)sc2c1 | 10.9% |
| COc1ccc(N(CCCN2C(=O)c3cccc4cccc(c34)C2=O)C(=O)c2cccnc2)cc1 | 6.64% |
| O=C(CCNC(=O)c1ccccc1Cl)NCc1cccnc1 | 6.98% |
| COc1ccc(/C=C/C(=O)NC(=S)NNC(=O)[C@H]2C[C@@H]2c2ccccc2)cc1OC | 12.6% |
| CCC(CC)n1[nH]c(=O)c2c(C)cc(C)nc21 | 9.03% |

| Compound | hERG current change (%, negative = inhibition) at 1uM |
| --- | --- |
| Cc1cc(C)cc(C(=O)NCC(=O)OCc2cc([N+](=O)[O-])cc3c2OCOC3)c1 | 2.64% |
| Cc1cccc(CSCCNC(=O)CSCc2ccc([N+](=O)[O-])cc2)c1 | -7.73% |
| O=C(Nc1cc([N+](=O)[O-])ccc1N1CCCC1)c1ccco1 | -4.14% |
| O=C1CCCc2c1sc1nc3n(c(=O)c21)CCCCC3 | 11.7% |
| O=C(CS(=O)CC(=O)N(CC(=O)NC1CCCC1)c1ccccc1F)Nc1ccc(F)cc1 (centres unmarked) | 15.6% |
| COc1ccc(NC(=O)c2cccc(N3C(=O)C4C5CCC(C5)C4C3=O)c2)cc1 (centres unmarked) | 16.8% |
| COCCN1CCN(C(=O)C2CCC(=O)N(CCc3cccc(F)c3)C2)CC1 (centres unmarked) | 2.31% |
| Cc1nn(-c2ccccc2)c2[nH]c(=O)cc(C(F)F)c12 | 10.7% |
| C=CCn1c(Cc2csc(N)n2)nnc1SCC(=O)Nc1ccc(C(=O)OCC)cc1 | 4.85% |
| CC(/C=C/c1ccccc1F)=N\NC(=O)c1ccccc1 | 7.5% |
| CN(C1CCCCC1)S(=O)(=O)c1cn(C)c(=O)n(C)c1=O | 9.96% |
| O=C(c1cccc(NS(=O)(=O)c2ccccc2)c1)N1CCN(c2ccccc2)CC1 | 12.9% |
| Cc1ccc(C(=O)N/C(=C\c2ccccc2)C(=O)NCCCn2ccnc2)cc1 | -87% |
| Oc1ccc(/C=N/n2c3ccccc3c3ccccc32)cc1 | 2.42% |
| CCCCOC(=O)/C=C\C(=O)NC(N)=O | 14% |
| COc1ccc(NC(=S)NC(=O)C2CCCCC2)cc1 | 3.06% |
| O=C(Nc1cc(Br)ccc1O)c1cc(-c2ccc3c(c2)OCO3)on1 | 6.96% |
| O=C1CC(c2ccc(O)cc2)Oc2cc(O)ccc21 (centres unmarked) | 12% |
